# Source: PubChem BioAssay AID445 (National Center for Advancing Translational Sciences (NCATS), 2006)
# Values joined by “and” are separate entries in the source; they are usually repeats but may differ in a detail not shown here. Equal values may be shown once. Out of some 110,000 compounds screened, about 40 (0.04%) were called active. The shares of active, inactive and inconclusive entries below differ from those in the screen. Calls come from the whole dose curve; as a rule, active = well fitted curve in the direction sought with a large enough effect in the signal ratio (not every such curve was filed as active); inconclusive = small, poorly fitted or top-dose-only effect, or a change in a side signal; inactive = flat fitted curve, though single readings scatter; the % refers to the signal ratio. Potencies of inconclusive entries are doubtful fits and often do not repeat.
# Test: IkB Signaling;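 for IkBa stabilization activation: 0% = basal untreated cells and 100% = reference inhibitor full response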
# Conditions: ABC-DLBCL IkBa-CBG/CBR dual luciferase ratio (green luciferase fused to IkBa over red control in OCI-Ly3 lymphoma cells), 4 h, scaled: untreated 0%
# In short: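 Luminescence ratio of IκBα-fused green versus native red beetle luciferase in OCI-Ly3 cells, 4 h post-doxycycline with compound; red signal alone, scaled from basal (0%) to zero light (-100%), flagged nonspecific or cytotoxic effects.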
# [1] = IkBa stabilization activation: at 57.1 µM (top of the series), proteasome inhibitor 100% unless noted
# Potency is the fitted concentration of half-maximal effect.
smiles,measurement,setting,value
Cc1ccc(NC(=O)CSc2nc(=O)n(Cc3cccnc3)c3c2CCC3)cc1F,IkBa stabilization activation,[1],inconclusive: 3.97% [signal inhibitor]
Cc1ccccc1Oc1nc2ccccn2c(=O)c1/C=C(\C#N)c1nc2ccccc2[nH]1,IkBa stabilization activation,[1],inconclusive: 12.3% [signal inhibitor]
CCc1cccc(C)c1NC(=O)c1cc(S(=O)(=O)N(Cc2ccc(C(=O)OC)cc2)Cc2ccc(OC)c(OC)c2)ccc1F,IkBa stabilization activation,[1],inactive
COc1ccc(Cc2nc3ccc(C(=O)NCc4ccccc4C)cc3o2)cc1,IkBa stabilization activation,[1],inconclusive: -0.674% [signal inhibitor]
COc1ccc(NC(=O)CN2C(=O)CC(c3ccc(C)c(C)c3)=Nc3ccccc32)cc1OC,IkBa stabilization activation,[1],inconclusive: 0.351% [signal inhibitor]
COc1ccc(N(Cc2cc3ccccc3[nH]c2=O)C(=O)c2cccc(Cl)c2)cc1,IkBa stabilization activation,[1],inconclusive: 4.42% [signal inhibitor]
CC(=O)N1c2ccccc2CC1C(=O)N1CCN(c2ccccc2)CC1 (configuration not stated),IkBa stabilization activation,[1],inactive
Cc1ccc(NC(=O)c2c(C)cc(C)nc2SCC(=O)Nc2ccc(Br)cc2)cc1,IkBa stabilization activation,[1],inconclusive: 0.159% [signal inhibitor]
CCc1nc2ccc(C(=O)NCCc3ccccc3OC)cc2nc1CC,IkBa stabilization activation,[1],inconclusive: -0.387% [signal inhibitor]
CC1CCN(CCc2nc3cc(NS(=O)(=O)c4ccc(F)cc4)ccc3n2C)CC1,Potency,[1],"inconclusive: 10 µM [signal inhibitor, partial curve]"
COc1ccc(OCC(=O)Nc2ccc3c(c2)nc(CCN2CCOCC2)n3C)cc1,IkBa stabilization activation,[1],inactive
CC(C)(C)Cc1nnc(NS(=O)(=O)Cc2ccccc2)s1,IkBa stabilization activation,[1],inconclusive: 17.5% [signal inhibitor]
Cc1ccc(NC(=O)c2nc(S(C)(=O)=O)ncc2N(Cc2ccc(C(C)(C)C)cc2)Cc2ccco2)cc1C,IkBa stabilization activation,[1],inactive
O=S(=O)(c1ccc(OC(F)(F)F)cc1)N1CCC(c2nnnn2-c2ccc(F)cc2)CC1,IkBa stabilization activation,[1],inactive
CCCC(O)c1nc2ccccc2n1CCCOc1ccc(Cl)cc1 (configuration not stated),IkBa stabilization activation,[1],inconclusive: 11.1% [signal inhibitor]
Nc1ncnc2nc[nH]c12.Nc1ncnc2nc[nH]c12.[Cl][Pt]([Cl])([Cl])[Cl],IkBa stabilization activation,[1],"inactive: 1.22% [at 11.4 µM, scaled: untreated 0%, proteasome inhibitor 100%]"
CCc1cccc(NC(=O)C2CCCN(c3ncnc4onc(-c5ccc(F)cc5)c34)C2)c1 (configuration not stated),IkBa stabilization activation,[1],inconclusive: 3.04% [signal inhibitor]
CCN1CCSc2ccc(C(=O)NCc3ccc(OC(C)C)cc3)cc21,IkBa stabilization activation,[1],inconclusive: 0.806% [signal inhibitor]
Oc1ccc(CNCc2ccccc2)c2cccnc12,IkBa stabilization activation,[1],"inactive: 1.53% [at 11.4 µM, scaled: untreated 0%, proteasome inhibitor 100%]"
CCOc1ccc(-c2cc3c(=O)n(CC(=O)NCc4ccc(C)cc4)ccn3n2)cc1,IkBa stabilization activation,[1],inactive
COc1ccccc1-c1nc(NCCc2cnc[nH]2)c2ccccc2n1,IkBa stabilization activation,[1],"inactive: -5.88% [at 11.4 µM, scaled: untreated 0%, proteasome inhibitor 100%]"
CCOC(=O)c1cccc(NC(=O)CSc2nnc(CNc3ccc(C)cc3)n2CC)c1,IkBa stabilization activation,[1],inconclusive: 3.15% [signal inhibitor]
Cc1nn(-c2ccccc2)c2sc(C(=O)N(CC(=O)NC(C)(C)C)Cc3ccco3)cc12,IkBa stabilization activation,[1],inconclusive: -1.01% [signal inhibitor]
Cc1ccc(-n2c(C)cc(C(=O)C(=O)Nc3ccccc3)c2C)c(C)c1,IkBa stabilization activation,[1],inconclusive: 0.889% [signal inhibitor]
CC(C(=O)NCCSCc1cccc(Cl)c1)N(c1ccccc1)S(C)(=O)=O (configuration not stated),IkBa stabilization activation,[1],inconclusive: 7.45% [signal inhibitor]
O=c1cc(-c2ccc(O)cc2)oc2cc(O)cc(O)c12,Potency,[1],"inconclusive: 20 µM [signal inhibitor, partial curve]"
same,IkBa stabilization activation,"at 25.6 µM (top of the series), proteasome inhibitor 100%",inconclusive: -5.85% [signal inhibitor]
same,IkBa stabilization activation,"at 57.1 µM (top of the series), proteasome inhibitor 100%",inconclusive: -0.745% [signal inhibitor] and inconclusive: -6.43% [signal inhibitor]
O=C(Nc1ccc2c(c1)OCCO2)NC12CC3CC(CC(C3)C1)C2,IkBa stabilization activation,[1],inactive
Cc1cccc(OCC(=O)Nc2cccc(OCc3cc(=O)n4cccc(C)c4n3)c2)c1,IkBa stabilization activation,[1],inconclusive: 9.03% [signal inhibitor]
O=C(/C=C/c1ccccc1)Nc1cc(-c2nc3cc(Cl)ccc3o2)ccc1Cl,Potency,[1],"inconclusive: 12.6 µM [signal inhibitor, partial curve]"
CCOc1cccc2cc(C(=O)N3CCc4ccccc4C3)c(=O)oc12,IkBa stabilization activation,[1],inconclusive: 5.48% [signal inhibitor]
Cc1cc2nc(-c3cccc(NC(=O)c4cccc5ccccc45)c3)oc2cc1C,Potency,[1],"inconclusive: 7.94 µM [signal inhibitor, partial curve]"
CCn1c(=O)cc(OCC(=O)NCc2ccc(C)o2)c2ccccc21,IkBa stabilization activation,[1],inactive
COc1cccc(CNn2c(-c3cccc(C)c3)nc3ccccc3c2=O)c1O,IkBa stabilization activation,[1],inconclusive: 0.333% [signal inhibitor]
CC1CCCN(C(=O)c2cc3ccc4cccnc4c3[nH]2)C1 (configuration not stated),Potency,[1],inconclusive: 1.26 µM [signal inhibitor]
COc1ccccc1S(=O)Cc1ccc(C(=O)NCCc2ccc(Cl)cc2)o1 (configuration not stated),IkBa stabilization activation,[1],inconclusive: 10.3% [signal inhibitor]
CCCCNC(=O)c1ccc2c(c1)N(Cc1ccc(F)cc1)C(=O)c1ccccc1S2=O (configuration not stated),IkBa stabilization activation,[1],inconclusive: 1.7% [signal inhibitor]
Cc1cc(C)c(NC(=O)Cn2c(=O)c3cccn3c3ccccc32)c(C)c1,IkBa stabilization activation,[1],inconclusive: -0.262% [signal inhibitor]
C=CCNc1nc(N)c(C(=O)c2ccc3c(c2)OCO3)s1,IkBa stabilization activation,[1],inactive
Cc1ccc(NC(=O)/C=C\C(=O)N(c2ccc(C(C)C)cc2)C(C(=O)NCc2ccco2)c2ccc(Cl)cc2)cc1 (configuration not stated),IkBa stabilization activation,[1],inconclusive: 1.51% [signal inhibitor]
CCOCCCNC(=O)c1ccc(-n2c(-c3ccccc3)cc3c2CCCC3)cc1,IkBa stabilization activation,[1],inconclusive: -1.89% [signal inhibitor]
